Sequences and labels used below:
B1: ENSG00000176396:stop:overlap|stop_codon|ENSG00000176396|stop_codon|NA|stop_codon (ssRNA)
RNA: GGGAGUUCUACAGUCCGACGAUCCUGAAGUUAUCAACCCUCUGAUAGAAGAACUUGGUUGCGAUAAGUUUAUCAAUAGAGAAUAGUUAUGUGGUGACACUACUUCAAGAGAACCUCUGCAUUCCAGUCAUACCAAUCCUGCAACAACAGAGGAUUGAGCAUCA
B2: chr3:138622260:138622368:+|CDS|ENSG00000158234|unk|FALSE|unique (ssRNA)
RNA: GGGAGUUCUACAGUCCGACGAUCAUUAGUGGGCAAAGAAACAUUCUAUGUUGGAGCUGCAAAGACAAAAGCGACCAUAAAUAUAGACGCUAUCAGUGGUUUUGCUUAUGAAUAUACUCUGGAAAUUAAUGGGAAAAGUCUCAACAACAGAGGAUUGAGCAUCA
B3: chr1:151291320:151291421:+|3pUTR|ENSG00000143373|unk|FALSE|unique (ssRNA)
RNA: GGGAGUUCUACAGUCCGACGAUCAAUAUUUUGUUAAUUCCUGUCUCUCCAACCUGAAGAAGAAGAGCAUUUGAGGAUUAUUCUAGUUAUUUGCAACCUCCCUUUGGGUUUGGCCCUGGAGUCCUAGUAGAGUGGACCCUCCAUCAACAGAGGAUUGAGCAUCA
B4: chr5:91374913:91375023:-|CDS|ENSG00000113369|unk|FALSE|bound_elsewhere (ssRNA)
RNA: GGGAGUUCUACAGUCCGACGAUCGAGACGUGGAAUGGCAAGUUGCUGAAAAUUCCACCAGUUUCUCCCUCUAUCCUCGACUGUAGUAUAAUCCGCGUGGAAUAUUCACUAAUGGUAUGUACACAUUUAAGAGGUUUUUUCCUUCAACAGAGGAUUGAGCAUCA
B5: chr14:92131016:92131127:+|CDS|ENSG00000165934|unk|FALSE|bound_elsewhere (ssRNA)
RNA: GGGAGUUCUACAGUCCGACGAUCACCCUUUCUGGGGUCCAAGAAGAAUCUGCCCUUUGCUAUCUUCUCCAAGUUGAUGAGUUUAGAUUUUUAUUGGACUGUGGCUGGGAUGAGCACUUUUCUAUGGAUAUUAUUGAUUCCCUGCAACAGAGGAUUGAGCAUCA
B6: chr15:40779088:40779310:-|CDS|ENSG00000104129|control|control|control (ssRNA)
RNA: GGGAGUUCUACAGUCCGACGAUCGAGAGGACCCAGAAACUUGAUGAGAAAAGGAAGAAAGUGAAGCUUGGUAGGUGCCAUCAUAGUGCUCGGUGGCCUGUGGUUUCCUGUGGUCAUUUUCAUUCAUCUCCCUCACCUGAAGCUCAACAGAGGAUUGAGCAUCA
B7: chr1:55154109:55154210:-|CDS|ENSG00000162402|msi1|FALSE|unique (ssRNA)
RNA: GGGAGUUCUACAGUCCGACGAUCCCUUAGUGAUGCAUAUGCAGUGAAAGAAGCAAUCAAGAGGAGCUACAUCAUCAAGUGCAUAGAAGAUAUUAAGAGGGUUGGUUUCAGCUUUUAUCUGAUUUUGUUGUUAGAGCAACAGUACAACAGAGGAUUGAGCAUCA
B8: chr12:3284911:3285012:+|3pUTR|ENSG00000011105|msi1|total|mutant (ssRNA)
RNA: GGGAGUUCUACAGUCCGACGAUCGGAGGACAGAACCGUUGGCAUUAUCAGGAUUCGUGUUUUGUGGGGGUGGGAGUGGAGAGCCGGGUGGUCUUGUGAGUUGUGCAGGGUGAAGACCGCUUCCCUGAGACAGGGGCAGUGGUGCAACAGAGGAUUGAGCAUCA
B9: chr2:85598546:85599075:-|three_prime_utr|ENSG00000168890|control|control|control (ssRNA)
RNA: GGGAGUUCUACAGUCCGACGAUCAAGCCAGACCACUGGGGUUUCCUGCUGCAGGAAUUGGGGGCUGGGAACAGCAGAGGGGAUAGAAGUCUGGUGGAGGUGGAGUGGGCACGCCUUAGCCUACGGAAAGGCCCAUUUCUGGGCCAACAGAGGAUUGAGCAUCA
B10: chr1:109062750:109062855:-|3pUTR|ENSG00000197780|unk|total|mutant (ssRNA)
RNA: GGGAGUUCUACAGUCCGACGAUCGCUUUCAGCCGCAGGAAUGGCAUUGUUUAAAAAGCUGAUGGCAGGGUAAGCAUUUGGGUCCGUGUUUUAUUAACAUAUUUGUAAGUACUUGUUCAUUGUGGAAAUGUGUCCUUGACUAAACAACAGAGGAUUGAGCAUCA
B11: ENSG00000089057:stop:overlap|stop_codon|ENSG00000089057|stop_codon|NA|stop_codon (ssRNA)
RNA: GGGAGUUCUACAGUCCGACGAUCAAGGCCUCAGGAAGAGCGACAACAGCCGGAGUUCAGAUGAAGACUCCCAGGCCACGGGAUAGCCUUUGCUGUGCCCUGUGGCCUGGCCGCAGUGAGGCAUGUAUCUGUAGUUCCUUGCUGCAACAGAGGAUUGAGCAUCA
B12: chr1:225419324:225419425:-|CDS|ENSG00000143815|msi1|total|mutant (ssRNA)
RNA: GGGAGUUCUACAGUCCGACGAUCUUACACCGCAACACAGUACCGCCUUCGUCCAAGAAGAGAAGAAGUCAAAUUAAAAGAAACCGAUUCUAAGGAAGAAAAAUACGUUGCAAAAGAACUGGCAGUGAGAACCUUUGAAGUGACCAACAGAGGAUUGAGCAUCA
B13: chr7:98206920:98207021:+|3pUTR|ENSG00000164715|unk|FALSE|unique (ssRNA)
RNA: GGGAGUUCUACAGUCCGACGAUCGUUCUGCAUUAAGCCCCAGGUUCUCUUCUGGCUUUGAAAGGGCCCGAGUGCUCCCAGUGUAGCUUCGUCACAUCGUCACGAGCCCCUGUGGUCAUGGGCGACCUCACACCUCCCUCCCUGCAACAGAGGAUUGAGCAUCA
B14: chr6:169419968:169421160:-|three_prime_utr|ENSG00000285733|control|control|control (ssRNA)
RNA: GGGAGUUCUACAGUCCGACGAUCUGGCAGGAGGGGAGGCGUUUAUGAGAGUCCCCGGUGGGCACAUAUUAAAAAAAGCUAAGUAGAAAAAUCACUGAGAACUCAUAACUGGUCAAUGAGUUCAGGUAGACAAUGAGGGAGGGUCAACAGAGGAUUGAGCAUCA
B15: chr7:47276374:47276475:-|3pUTR|ENSG00000136205|msi1|total|mutant (ssRNA)
RNA: GGGAGUUCUACAGUCCGACGAUCCUGGGGUUUGGGAAUGUGCUUUGUGAACUCUGCUUUAAAGUGAGGGGCCGAGGAAAACUCCGAAACAGGCAGAGUUGGAAGCAGCCAAAUCACAGUGGGUGUUGUGUGUGUGUGCGUGUGCAACAGAGGAUUGAGCAUCA
B16: chrX:155260805:155261229:-|CDS|ENSG00000155961|control|control|control (ssRNA)
RNA: GGGAGUUCUACAGUCCGACGAUCUGGUCUUCUCUUAUUUGACAUUACCAACCGCAGGUCCUUCCAGAAUGUCCAUGAGUGGUUAGAAGAGACCAAAGUACACGUUCAGCCCUACCAAAUUGUAUUUGUUCUGGUGGGUCACAACAACAGAGGAUUGAGCAUCA
B17: chr11:46383557:46383658:+|3pUTR|ENSG00000110492|msi1_unk|total|mutant (ssRNA)
RNA: GGGAGUUCUACAGUCCGACGAUCCCACGCCCUCCCUCUCCCAGGCCCGAGAUGUGACCCACCAGUGCCUUCUGUCUGCUCGUCCGCUUUAAUCAAUCAUGCCCUGCCUUGUCCCUCUCACUCCCCAGCCCCACCCCUAAGUGCCAACAGAGGAUUGAGCAUCA
B18: chr17:4897770:4898853:-|three_prime_utr|ENSG00000108556|control|control|control (ssRNA)
RNA: GGGAGUUCUACAGUCCGACGAUCUCCUCGGGGCCUACUUCAACCGAGUGCCUGAUCUCCCCUACGCGCCGUGUAUCCAGCCUUAGCUCGCACCGACUUCAAUUUCCCACCCAUCUCCAGUAGGAAAUUGAUUUUGAAAAAGUACAACAGAGGAUUGAGCAUCA
B19: chr3:27376575:27376676:-|3pUTR|ENSG00000033867|msi1|total|mutant (ssRNA)
RNA: GGGAGUUCUACAGUCCGACGAUCCUAUAUAUAAGAAUAUUGUAUGUCAUGCUGUUUAUGUGUGACUACCGGGUUUUUAAAAGCCGUGUCUGGAGUUUGUAAUGAGCACCGUGGAGACUAUGUAUUUAAUGAAAUGCUCUCUUUCAACAGAGGAUUGAGCAUCA
B20: chr10:7163078:7163179:-|3pUTR|ENSG00000198879|unk|total|mutant (ssRNA)
RNA: GGGAGUUCUACAGUCCGACGAUCAGAGGUGCCUUUCCGGAAUACGGGGAGUGAAGGAAGGCCGGCAGGCAUCUCCAUGCAACCCGAUGGUUUGUUUGUUUGUUUGUUUGUUUGUUGUUCAUUUUGUUGUGUUUUUUGAGACAGCAACAGAGGAUUGAGCAUCA
B21: chr8:143915815:143915916:-|3pUTR|ENSG00000178209|msi1|FALSE|unique (ssRNA)
RNA: GGGAGUUCUACAGUCCGACGAUCGCCAGGUGCCUUGGAGGGUCCCAAGCUGGGCCCCAGCCCACCCUCCUGUCUUCCCAGGGUAGCCCGCCUGCCAGUCCUAGCUGCACAGGGCAGCUGGGCCCAACCCUGUCUGUAGAGGGCCAACAGAGGAUUGAGCAUCA
B22: chr18:67512643:67512744:-|CDS|ENSG00000171451|unk|total|mutant (ssRNA)
RNA: GGGAGUUCUACAGUCCGACGAUCGCCAUGAUGGAUGUGUGGGAUGCACAUUACAAAAUGUUUUGGUUUGAUCAUCAUGGCAACCGUCCCAUGGCCAGUAUACAGGAAGCAGAGCAAGCUGCUGAAUUUAAAAAACGAUGGACUCAACAGAGGAUUGAGCAUCA

Some of the results follow.

In this experiment the target is T1, UNK ZnF1-6 (called full-length) (human, UniProt Q9C0B0 30-357).
T1 sequence: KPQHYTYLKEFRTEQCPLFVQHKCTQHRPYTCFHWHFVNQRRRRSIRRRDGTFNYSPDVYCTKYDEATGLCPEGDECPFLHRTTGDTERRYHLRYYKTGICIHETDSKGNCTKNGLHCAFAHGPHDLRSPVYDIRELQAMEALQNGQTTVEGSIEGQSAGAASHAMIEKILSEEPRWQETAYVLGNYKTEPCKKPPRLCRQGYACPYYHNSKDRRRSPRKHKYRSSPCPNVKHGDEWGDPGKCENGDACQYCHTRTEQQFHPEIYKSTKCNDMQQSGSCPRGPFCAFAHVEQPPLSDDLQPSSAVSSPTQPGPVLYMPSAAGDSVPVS
Nature of the experiment: nsRBNS (natural sequence RNA bind-n-seq); RBNS binding buffer (assumed for nsRBNS): 25 mM Tris pH 7.5, 150 mM KCl, 3 mM MgCl2, 0.01% Triton X-100, 500 ug/ml BSA, 20 U/ml SUPERase-In, 4 C; UNK is unkempt and MSI1 is Musashi-1; names of the RNAs are library labels; protein concentration not given here; high values mean tight binding.
Turning to B1, the binding signal amounted to 0.882 enrichment R. Molecule B2 returned a binding signal of 0.308 enrichment R. On to B3, for which the binding signal amounted to 0.887 enrichment R. Next, B4: 0.305 enrichment R; B5: 0.374 enrichment R; B6: 0.783 enrichment R. Next, B7: 0.456 enrichment R; B8: 1.21 enrichment R; B9: 1.09 enrichment R. The molecule B10 displayed a binding signal of 0.702 enrichment R. In the case of B11, the binding signal was 1.43 enrichment R.

In turn, B12 had a binding signal of 0.38 enrichment R. Next, B13: 1.26 enrichment R. The same measure for B14: 1.69 enrichment R; for B15: 0.971 enrichment R; for B16: 0.539 enrichment R. B17 came in with a binding signal of 1.45 enrichment R. Take B18: the binding signal worked out at 0.594 enrichment R.

Molecule B19 had a binding signal of 0.486 enrichment R. B20 had a binding signal of 0.878 enrichment R. The same measure for B21: 1.03 enrichment R; for B22: 0.556 enrichment R.
